These results are taken from a collection of fitness landscapes (doi:10.1126/science.1257360).

B1: PhoQ; a variant is named by its letters at X, in order, P23837 (parent)
chain: MKKLLRLFFPLSLRVRFLLATAAVVLVLSLAYGMVALIGYSVSFDKTTFRLLRGESNLFYTLAKWENNKLHVELPENIDKQSPTMTLIYDENGQLLWAQRDVPWLMKMIQPDWLKSNGFHEIEADVNDTSLLLSGDHSIQQQLQEVREDDDDAEMTHSVAVNVYPATSRMPKLTIVVVDTIPVELKSSYMVWSWFIYVLSANLLLVIPLLWVAAWWSLRPIEALAKEVRELEEHNRELLNPATTRELTSLVRNLNRLLKSERERYDKYRTTLTDLTHSLKTPLXXLQXXLRSLRSEKMSVSDAEPVMLEQISRISQQIGYYLHRASMRGGTLLSRELHPVAPLLDNLTSALNKVYQRKGVNISLDISPEISFVGEQNDFVEVMGNVLDNACKYCLEFVEISARQTDEHLYIVVEDDGPGIPLSKREVIFDRGQRVDTLRPGQGVGLAVAREITEQYEGKIVAGESMLGGARMEVIFGRQHSAPKDE

Some of the results follow. Bounds are passed on as bounds.

The variants in the assay derive from B1. The assay can be described thus: enrichment ratio after two sorts for PhoP signalling (ratio (wild type AVST 3.29)); higher = more functional. The note with it: with PhoP (E. coli).
Take VEMQ: the enrichment ratio was determined as 1.65.

On to MMRR, for which the enrichment ratio is at most 0.25.

Take DMCH: the enrichment ratio is at most 0.25.

For MNAY, the enrichment ratio amounted to 17.

As to APTV, the enrichment ratio is at most 0.25.

As to EHIY, the enrichment ratio is at most 0.25.

As for IHEH, the enrichment ratio is at most 0.25.

As for GWYY, the enrichment ratio was at most 0.25.

Take FTAI: the enrichment ratio was at most 0.25.

As for QCPT, the enrichment ratio is at most 0.25.

Regarding TVSA, the enrichment ratio is 10.2.

In the case of VCTA, the enrichment ratio is at most 0.25.

Regarding KVNK, the enrichment ratio is at most 0.25.

With NDMN, the enrichment ratio was at most 0.25.

Consider DDGW, for which the enrichment ratio is at most 0.25.

With LWWK, the enrichment ratio was at most 0.25.

With VQTD, the enrichment ratio is at most 0.25.

Take ISFH: the enrichment ratio worked out at 0.373.

Turning to VHFQ, the enrichment ratio is at most 0.25.

Take PIDH: the enrichment ratio was at most 0.25.

Consider QMRL, for which the enrichment ratio was at most 0.25.

In the case of YAYN, the enrichment ratio was at most 0.25.

For LTIV, the enrichment ratio is at most 0.25.

In the case of FCIE, the enrichment ratio is at most 0.25.

As for IFSL, the enrichment ratio came to 0.302.

Turning to YGFY, the enrichment ratio was at most 0.25.

Regarding ENAR, the enrichment ratio is at most 0.25.

As to KGPD, the enrichment ratio is at most 0.25.

Turning to LDNI, the enrichment ratio is at most 0.25.

As to NLCL, the enrichment ratio was determined as 0.966.

As to PKAE, the enrichment ratio is at most 0.25.

As to FRRW, the enrichment ratio was at most 0.25.

For the variant IHRD, the enrichment ratio was at most 0.25.

In the case of YWWD, the enrichment ratio was at most 0.25.

For YRSA, the enrichment ratio is at most 0.25.

Regarding YSVY, the enrichment ratio came to 0.45.

Turning to TPIC, the enrichment ratio was at most 0.25.

Turning to DFWW, the enrichment ratio was at most 0.25.

As to GGAN, the enrichment ratio is at most 0.25.

For RTKV, the enrichment ratio was at most 0.25.

For KDPD, the enrichment ratio was at most 0.25.

Regarding EDTF, the enrichment ratio was at most 0.25.

Take SPNA: the enrichment ratio was at most 0.25.

TDTH: the enrichment ratio is 8.19.

Regarding WRYD, the enrichment ratio was at most 0.25.

For the variant LAIM, the enrichment ratio is at most 0.25.

In the case of AQKD, the enrichment ratio is at most 0.25.

As to RWML, the enrichment ratio is at most 0.25.

For the variant ACIP, the enrichment ratio was at most 0.25.

Regarding DKVS, the enrichment ratio is at most 0.25.

As to DTLT, the enrichment ratio was at most 0.25.

On to WKLM, for which the enrichment ratio is at most 0.25.

Consider GNQA, for which the enrichment ratio is at most 0.25.

With ESYN, the enrichment ratio is at most 0.25.

As to SHRA, the enrichment ratio is at most 0.25.

On to WDSL, for which the enrichment ratio was at most 0.25.

As for IMIS, the enrichment ratio is at most 0.25.

As to IHPP, the enrichment ratio is at most 0.25.

Turning to IPDM, the enrichment ratio is at most 0.25.

SIIL: the enrichment ratio is at most 0.25.

Turning to ACVK, the enrichment ratio is at most 0.25.

As for KIMF, the enrichment ratio was at most 0.25.

With NTFA, the enrichment ratio was at most 0.25.

For the variant QACH, the enrichment ratio was at most 0.25.

For NKRQ, the enrichment ratio is at most 0.25.

As for KLRC, the enrichment ratio is at most 0.25.

As for KERW, the enrichment ratio was at most 0.25.

TRCE: the enrichment ratio is at most 0.25.

Consider LNHR, for which the enrichment ratio is at most 0.25.

Turning to WDRD, the enrichment ratio is at most 0.25.

In the case of TGND, the enrichment ratio is at most 0.25.

TKPW: the enrichment ratio was at most 0.25.

For KISP, the enrichment ratio is at most 0.25.

For the variant RNWS, the enrichment ratio is at most 0.25.

In the case of WTSP, the enrichment ratio is at most 0.25.

Turning to EGPW, the enrichment ratio was at most 0.25.

With APVF, the enrichment ratio was at most 0.25.

In the case of IAAS, the enrichment ratio was at most 0.25.

For KPLE, the enrichment ratio was at most 0.25.

In the case of MMCR, the enrichment ratio is at most 0.25.

On to YICQ, for which the enrichment ratio is 0.338.

Regarding MDWS, the enrichment ratio is at most 0.25.

With IYLF, the enrichment ratio was at most 0.25.

With SSIE, the enrichment ratio was at most 0.25.

For KRFA, the enrichment ratio is at most 0.25.

Regarding SWCA, the enrichment ratio is at most 0.25.

Take KFYF: the enrichment ratio is at most 0.25.

As for TSNT, the enrichment ratio was 11.9.

In the case of SGTT, the enrichment ratio stood at 8.51.

Consider THRF, for which the enrichment ratio was at most 0.25.

In the case of THDV, the enrichment ratio was at most 0.25.

Turning to GTFM, the enrichment ratio was at most 0.25.

ERGL: the enrichment ratio was at most 0.25.

As to YSYC, the enrichment ratio is at most 0.25.

Consider QGIY, for which the enrichment ratio was at most 0.25.

With FDQL, the enrichment ratio is at most 0.25.

In the case of ETLT, the enrichment ratio was at most 0.25.

In the case of MIHM, the enrichment ratio was determined as 4.4.

In the case of HSWR, the enrichment ratio was at most 0.25.

For the variant GFFR, the enrichment ratio was at most 0.25.

In the case of SMWK, the enrichment ratio was at most 0.25.

Take ANFS: the enrichment ratio was at most 0.25.

GGDQ: the enrichment ratio was at most 0.25.

Consider DWEV, for which the enrichment ratio is at most 0.25.

With RVQC, the enrichment ratio is at most 0.25.

On to RTIE, for which the enrichment ratio was at most 0.25.

For the variant SCWH, the enrichment ratio was at most 0.25.

Turning to GWLR, the enrichment ratio was at most 0.25.

With IGPP, the enrichment ratio was at most 0.25.

In the case of KEGV, the enrichment ratio is at most 0.25.

For KQAW, the enrichment ratio was at most 0.25.

For the variant PSLD, the enrichment ratio was at most 0.25.

As for GHMF, the enrichment ratio is at most 0.25.

For YLPE, the enrichment ratio was at most 0.25.

In the case of PALS, the enrichment ratio is at most 0.25.

As to FYIY, the enrichment ratio is at most 0.25.

Turning to DIWE, the enrichment ratio was at most 0.25.

As for DWGH, the enrichment ratio is at most 0.25.

Turning to WHGR, the enrichment ratio is at most 0.25.

For ICIM, the enrichment ratio is at most 0.25.

Take DLEL: the enrichment ratio was at most 0.25.

Turning to SHWG, the enrichment ratio is at most 0.25.

As for AEQA, the enrichment ratio was at most 0.25.

Consider HPQR, for which the enrichment ratio is at most 0.25.

As for QHMQ, the enrichment ratio is at most 0.25.

Turning to TFHP, the enrichment ratio is at most 0.25.

Turning to PVHS, the enrichment ratio is at most 0.25.

In the case of AVHL, the enrichment ratio is at most 0.25.

With YGVQ, the enrichment ratio was at most 0.25.

For the variant QNAH, the enrichment ratio is at most 0.25.

IDNS: the enrichment ratio was at most 0.25.

Regarding GNIM, the enrichment ratio came to 13.4.

As for KSSW, the enrichment ratio stood at 0.925.

Consider MDGR, for which the enrichment ratio is at most 0.25.

As to PVVV, the enrichment ratio is at most 0.25.

With YFLF, the enrichment ratio is at most 0.25.

Turning to VWGA, the enrichment ratio is at most 0.25.

For MWFF, the enrichment ratio was at most 0.25.

Consider YCLN, for which the enrichment ratio was 3.13.

Consider VHSL, for which the enrichment ratio was at most 0.25.

In the case of QYGH, the enrichment ratio was at most 0.25.

Regarding DDID, the enrichment ratio was at most 0.25.

Take SEGY: the enrichment ratio was found to be 7.5.

Take MISN: the enrichment ratio is 8.15.

With YKQD, the enrichment ratio was at most 0.25.

For SHCV, the enrichment ratio came to 2.51.

Take NPNW: the enrichment ratio is at most 0.25.

Consider VQLF, for which the enrichment ratio was at most 0.25.

As to RPRA, the enrichment ratio was at most 0.25.

As for PFDC, the enrichment ratio is at most 0.25.

With AFCP, the enrichment ratio is at most 0.25.

Consider FWGW, for which the enrichment ratio was at most 0.25.

WSHG: the enrichment ratio is at most 0.25.

For the variant NHSQ, the enrichment ratio was at most 0.25.

In the case of AHCF, the enrichment ratio stood at 8.2.

Consider MRVK, for which the enrichment ratio is at most 0.25.

For QRAV, the enrichment ratio was at most 0.25.

On to RKPM, for which the enrichment ratio was at most 0.25.

Regarding DGMV, the enrichment ratio was at most 0.25.

Take QLGV: the enrichment ratio was at most 0.25.

PPDG: the enrichment ratio was at most 0.25.

For SLTL, the enrichment ratio was 15.2.

As to LVPK, the enrichment ratio was at most 0.25.

As for VSPP, the enrichment ratio is at most 0.25.

As to WNRA, the enrichment ratio is at most 0.25.

On to WITF, for which the enrichment ratio is at most 0.25.

As for MKRI, the enrichment ratio was at most 0.25.

Consider WKQL, for which the enrichment ratio is at most 0.25.

In the case of DEFA, the enrichment ratio is at most 0.25.

NHVN: the enrichment ratio was at most 0.25.

Turning to HRIM, the enrichment ratio is at most 0.25.

For GRLP, the enrichment ratio was at most 0.25.

As to DFFS, the enrichment ratio is at most 0.25.

In the case of PIKR, the enrichment ratio was at most 0.25.

Turning to QVAN, the enrichment ratio was at most 0.25.

For RRWT, the enrichment ratio is at most 0.25.

Regarding KHRR, the enrichment ratio is at most 0.25.

Consider DRDI, for which the enrichment ratio is at most 0.25.

Turning to AWKD, the enrichment ratio is at most 0.25.

MQKA: the enrichment ratio is at most 0.25.

On to VQSC, for which the enrichment ratio is at most 0.25.

As for FDSS, the enrichment ratio was at most 0.25.

On to WSLP, for which the enrichment ratio was at most 0.25.

SSAQ: the enrichment ratio is 10.4.

For the variant CFTL, the enrichment ratio stood at 15.7.

For QMLA, the enrichment ratio is at most 0.25.

On to DHVD, for which the enrichment ratio is at most 0.25.

Regarding DCPK, the enrichment ratio was at most 0.25.

For the variant ITCR, the enrichment ratio is at most 0.25.

Regarding WQVK, the enrichment ratio was at most 0.25.

In the case of ESID, the enrichment ratio is at most 0.25.

As to RDES, the enrichment ratio is at most 0.25.

NGEV: the enrichment ratio was at most 0.25.

Turning to PRKW, the enrichment ratio was at most 0.25.

As to IAMN, the enrichment ratio was at most 0.25.
